# The whole screen tested about 310,000 compounds, of which about 2,200 (0.71%) showed an effect of 50% or more. Effects have a minus sign here. The list shows a part of the results.
# Target: human ether-à-go-go-related gene (hERG) potassium channel (human, UniProt Q12809)
# Assay: primary screen, population patch clamp on CHO cells stably expressing hERG
# Sequence of human ether-à-go-go-related gene (hERG) potassium channel (Q12809 whole entry, looked up): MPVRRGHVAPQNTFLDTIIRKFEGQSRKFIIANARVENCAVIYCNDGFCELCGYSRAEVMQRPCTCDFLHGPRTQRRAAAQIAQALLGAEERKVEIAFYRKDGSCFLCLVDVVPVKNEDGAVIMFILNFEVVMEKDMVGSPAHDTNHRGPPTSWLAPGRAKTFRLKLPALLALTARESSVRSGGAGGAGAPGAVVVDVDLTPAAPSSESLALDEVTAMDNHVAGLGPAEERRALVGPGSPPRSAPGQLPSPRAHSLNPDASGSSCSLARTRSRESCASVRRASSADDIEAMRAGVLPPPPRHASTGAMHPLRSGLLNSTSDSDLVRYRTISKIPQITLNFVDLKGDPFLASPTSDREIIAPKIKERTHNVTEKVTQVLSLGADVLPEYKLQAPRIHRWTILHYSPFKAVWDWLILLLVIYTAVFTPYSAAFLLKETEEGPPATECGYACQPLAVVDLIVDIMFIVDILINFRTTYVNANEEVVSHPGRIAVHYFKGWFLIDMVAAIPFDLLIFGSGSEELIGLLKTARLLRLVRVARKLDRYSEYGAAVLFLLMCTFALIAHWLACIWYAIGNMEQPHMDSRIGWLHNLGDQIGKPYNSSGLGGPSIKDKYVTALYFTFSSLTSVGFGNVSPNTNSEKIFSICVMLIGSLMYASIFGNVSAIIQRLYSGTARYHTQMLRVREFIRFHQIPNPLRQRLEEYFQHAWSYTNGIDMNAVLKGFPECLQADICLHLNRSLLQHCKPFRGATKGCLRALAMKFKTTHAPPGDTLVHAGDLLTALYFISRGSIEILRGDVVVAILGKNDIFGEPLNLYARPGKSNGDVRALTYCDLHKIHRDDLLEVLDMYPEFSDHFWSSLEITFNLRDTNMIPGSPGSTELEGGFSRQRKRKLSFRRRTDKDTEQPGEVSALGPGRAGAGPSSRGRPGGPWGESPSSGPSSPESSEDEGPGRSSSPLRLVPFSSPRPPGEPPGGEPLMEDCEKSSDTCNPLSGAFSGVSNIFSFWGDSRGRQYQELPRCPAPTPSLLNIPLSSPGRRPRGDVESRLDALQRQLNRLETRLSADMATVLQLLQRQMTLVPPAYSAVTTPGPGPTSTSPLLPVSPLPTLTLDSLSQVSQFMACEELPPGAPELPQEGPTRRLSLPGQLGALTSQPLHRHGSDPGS
row,SMILES,"hERG current change (%, negative = inhibition) at 1uM"
1,Cn1c(=O)c2c(nc(SCC(=O)c3cccs3)n2Cc2ccc(F)cc2)n(C)c1=O,-2.72%
2,CCOC(=O)Cc1cc(=O)n2[nH]c(C)c(-c3ccc(OC)cc3)c2n1,-3.61%
3,Cc1ccc(S(=O)(=O)Nc2cccc3c2CCCC3)cc1,15.1%
4,Cn1c(=O)c2c(nc(OCc3ccccc3)n2C)n(C)c1=O,14.1%
5,CCOC(=O)N1CCN(C(=O)CNC(=O)c2nn(-c3ccc(OC)c(Cl)c3)c(=O)c3ccccc23)CC1,9.65%
6,N#Cc1ccc(COC(=O)c2ccc3c(=O)[nH]c(CN4CCOCC4)nc3c2)cc1,-8.59%
7,Cc1cc(-c2ccccc2)nc(N(C)NC(=O)C2CC2)c1S(C)(=O)=O,9.67%
8,O=C(CSC(=S)N1CCCCC1)c1c(F)cccc1F,21.7%
9,CCCNC(=O)NC(=O)COc1ccc2oc3ccccc3c2c1,6.28%
10,Br.CC(=O)c1sc(N/N=C2\CC3CC2C(C)C3(C)C)nc1C (centres unmarked),11.8%
11,COc1ccc(C(=O)Nc2cccc3c2CCCC3)cc1OC,13.5%
12,COc1c(Cl)cc(Br)c(OC)c1C(=O)NC(=O)Nc1nc(C)cc(C)n1,17.7%
13,Cc1ccc(-n2nnc3c(=O)n(CC(N)=O)cnc32)cc1,12.2%
14,COc1cccc(CN2C(=O)C(C)N(C(=O)c3ccccc3)c3ccccc32)c1 (centres unmarked),12.9%
15,CC1(c2ccccc2)NC(=O)N(CC(=O)N2CCN(S(=O)(=O)c3ccccc3[N+](=O)[O-])CC2)C1=O (centres unmarked),17.7%
16,Cc1onc(-c2c(Cl)cccc2Cl)c1C(=O)NC(=S)Nc1sc2c(c1C(N)=O)CCC(C)C2 (centres unmarked),7.34%
17,Cc1ccc(-c2csc3ncnc(N4CCN(C(=O)c5ccco5)CC4)c23)cc1,-22.8%
18,O=C(COc1ccc(Br)cc1)N(Cc1cccs1)C1CCS(=O)(=O)C1 (centres unmarked),5.76%
19,Cc1nn(-c2ccc(C(=O)Nc3nnc(C4CC4)s3)cc2)c(C)c1Cl,7.1%
20,Cc1nc2nc(C)c(NS(=O)(=O)c3cccs3)c(=O)n2[nH]1,11.8%
21,COc1ccc(-c2nnn(CCC(=O)O)n2)cc1,6.25%
22,O=C(O)CSCC(=O)N(c1ccccc1)c1ccccc1,17.8%
23,Cc1cc(C)n(-c2nc3ccccc3nc2N2CCOCC2)n1,15.1%

row,SMILES,"hERG current change (%, negative = inhibition) at 1uM"
1,COc1ccc(N2CCN(C(=O)c3ccc4c(c3)NC(=O)C(CSCc3ccc(C)cc3)N4)CC2)cc1 (centres unmarked),14%
2,CCCc1ccc(C(=O)NNc2cc(Cl)ccc2Cl)cc1,7.35%
3,Cc1cc(C(=O)NNC(=O)Nc2cccc(C(F)(F)F)c2)no1,14.9%
4,N#Cc1nc(-c2ccc(F)cc2)oc1N1CCCC1,-0.732%
5,NC(=O)COC(=O)c1c2c(nc3ccccc13)CCCCC2,2.21%
6,Cc1nc(SCc2ccc(O)c([N+](=O)[O-])c2)c([N+](=O)[O-])[nH]1,9.15%
7,Cc1cccc(C)c1NC(=O)C1C2C=CC(C2)C1C(=O)O (centres unmarked),9.96%
8,Cc1cc(NC(=O)COC(=O)C2CCN(S(=O)(=O)c3cccc(Cl)c3Cl)CC2)no1,8.08%
9,COc1ccc(NC(=O)C(c2ccc(C)cc2)N(C)C(=O)c2cnccn2)cc1 (centres unmarked),-17.5%
10,COc1ccc(/C(C)=N/Nc2nc3ccccc3nc2C)cc1,8.76%
11,COc1ccccc1-c1nnc(NC(=O)c2ccc(S(=O)(=O)N(C)Cc3ccccc3)cc2)o1,4.43%
12,Cc1ccc(CNC(=O)CSCc2ccc(F)cc2)cc1,3.73%
13,CC(=O)N1N=C(c2ccc(Br)cc2)CC1c1cn(C)c2ccccc12 (centres unmarked),9.41%
14,O=C(c1ccncc1)N1CCN(S(=O)(=O)c2cccc(C(F)(F)F)c2)CC1,-0.517%
15,Cc1ccc(CN2CCN(/N=C/c3ccco3)CC2)c(C)c1,0.601%
16,O=C(Nn1cnnc1)c1cc2c(s1)CCCC2,6.23%
17,COCC(=O)Nc1ccc(N2CCN(c3ccccc3)CC2)c(F)c1,20.7%
18,Cn1c(=O)n(C)c2cc(/C=N/NC(=O)c3ccc(Cl)cc3Cl)ccc21,4.2%
19,CN(CC(=O)Nc1cccc(F)c1)C(=O)CCC1CCCCC1,11.4%
20,Fc1ccc(CN2CC[C@H]3C=CCc4cccc(c43)C2)cc1,3.8%
21,Cc1nc(C)c(C(=O)Nc2ccc(Oc3ccccc3)cc2)o1,-6.52%
22,CC(C)c1nnc(NC(=O)CCC(=O)NC2CC2)s1,15.4%
23,Cc1ccc(-c2nc(NCC3CCCO3)sc2C)cc1 (centres unmarked),6.07%

row,SMILES,"hERG current change (%, negative = inhibition) at 1uM"
1,CC(C)(C)NC(=O)c1ccc2c(c1)N(CC(=O)N1CCN(c3ccc(F)cc3)CC1)C(=O)C(C)(C)O2,-10.4%
2,CN(CC1CCCO1)S(=O)(=O)c1ccc(C(=O)Nc2ccccc2F)cc1 (centres unmarked),7.45%
3,O=C(CN1CCN(Cc2ccccc2Cl)C1=O)NCCCN1CCOCC1,13.2%
4,CC(C)(C)c1ccc(CSc2ccc(S(=O)(=O)N3CCOCC3)cn2)cc1,7.21%
5,Cc1ccc(C(=O)NCC(=O)O)s1,10.7%
6,CC(NC(=O)NC1CCCCC1)c1ccc2c(c1)OCO2 (centres unmarked),6.92%
7,Cc1ccccc1NC(=O)Cc1nc(COC(=O)Cc2ccccc2F)cs1,7.25%
8,COC(=O)[C@H]1C[C@@H]1[C@H](NC(=O)[C@H]1C[C@@H]1[C@H](NC(=O)OCc1ccccc1)c1ccccc1)c1ccccc1,11.3%
9,CN(C)C(=O)COC(=O)c1ccccc1NC(=O)c1ccco1,10.6%
10,CS(=O)(=O)N(CC(=O)NCc1ccc2c(c1)OCO2)c1cccc(Cl)c1,-16%
11,CN(C(=O)c1cccnc1)c1nc(-c2ccccc2)cs1,11.4%
12,CCCCn1c(N)c(N(CCOC)C(=O)c2ccc(-c3cccc(C(F)(F)F)c3)o2)c(=O)[nH]c1=O,10.2%
13,CN(C)S(=O)(=O)c1cccc(-c2nn(-c3ccccc3)cc2/C=C2\SC(=S)NC2=O)c1,5.57%
14,COc1ccc(CNC(=O)C2CCN(C(=O)c3csc(Nc4ccc(C)cc4)n3)CC2)cc1,9.94%
15,COc1ccc2c(c1)C(c1ccc(C)o1)=NNC(c1ccccc1)=N2,9.69%
16,Nc1nc(N)nc(Cc2ccccc2O)n1,7.25%
17,COc1ccccc1NC(=O)C(C)N(C)Cc1ccc(Cl)s1 (centres unmarked),13.4%
18,O=C(N/N=C/c1cccs1)C1CC(=O)N(c2ccccc2)C1 (centres unmarked),2.89%
19,CN1CCN(C(c2ccccc2)c2ccc(Cl)cc2)CC1.Cl (centres unmarked),-3.06%
20,O=C(c1cn(Cc2ccccc2)nc1-c1cccnc1)N1CCc2ccccc2C1,7.31%
21,NC(=O)c1nsc(C(=O)N(c2cccc(F)c2)C(C(=O)NCC2CCCO2)c2c[nH]c3ccccc23)c1N (centres unmarked),8.63%
22,O=S1(=O)CCC(n2nccc2-c2ccccc2)C1 (centres unmarked),11.4%
23,Cc1ccc([N+](=O)[O-])c(OCCCN2C(=O)NC(C)(C)C2=O)c1,14%

row,SMILES,"hERG current change (%, negative = inhibition) at 1uM"
1,CCCCCn1c(CNC(=O)c2cccs2)nc2ccccc21,-6.49%
2,Cc1nnc(NC(=O)CSCc2ccccc2)s1,6.6%
3,S=C(Nc1ccc(Cl)cc1Cl)N1CCCCC1,4%
4,COc1cc(OC)c(-c2nn3c(C4CCCCC4)nnc3s2)cc1OC,9.63%
5,O=C(NCc1cccnc1)Nc1ccccc1C(F)(F)F,0.0148%
6,C[N+](C)(C)CCN1C(=O)CSC1=O.[I-],12.8%
7,COc1ccc(-c2csc(N(CCCN3CCOCC3)C(=O)CCl)n2)cc1.Cl,9.77%
8,Cc1c(C=O)cnn1CCC(=O)O,5.15%
9,O=C(CN1CCN(c2ccc(O)cc2)CC1)NC(c1ccccc1)c1ccccc1,-2.9%
10,COc1ccc(O)c(/C=N/NC(=S)Nc2cccc(S(=O)(=O)N(C)C)c2)c1,-2.78%
11,COc1ccc(/C=C/C(=O)NC(CCSC)C(=O)O)cc1 (centres unmarked),3.39%
12,C/C(=C\c1ccc(N)cc1)c1nc2ccccc2[nH]1,10%
13,O=C(/C=C/c1c(F)cccc1Cl)Nc1cccnc1,20.9%
14,COc1ccccc1Cn1c(SCC(=O)C(C)(C)C)nc2cc(C(=O)N3CCC4(CC3)OCCO4)ccc2c1=O,1.32%
15,COc1ccccc1-n1nnnc1SCC(=O)N(C)C1CCS(=O)(=O)C1 (centres unmarked),5.14%
16,COc1cc(F)c(C2=CC(=O)C[C@H](c3ccc(F)cc3)C2)cc1F,18.1%
17,CCCn1c(C(C)NS(=O)(=O)c2ccccc2)n[nH]c1=S (centres unmarked),15%
18,Cc1cc2nc(-c3ccco3)cc(C(F)(F)F)n2n1,2.34%
19,COc1ccccc1-n1c(N)c(C(N)=O)sc1=S,13.7%
20,Cc1ccc(NS(=O)(=O)c2cccc(C(=O)NCC(c3cccs3)N(C)C)c2)cc1 (centres unmarked),8.66%

# Source: paper PMC4336329 (PLoS ONE, 2015)
